The source of these data is PubChem BioAssay AID1346428 (National Center for Advancing Translational Sciences (NCATS), 2018).

“And” between values parts separate entries of the source, which are not always exact repeats. Equal entries are not always repeated. The campaign covered roughly 48,000 compounds. About 1,200 (2.5%) were called active. About 2% were inconclusive and are not listed.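 How the source made its calls: active means activation of at least 60% and not above a set upper limit (about 1 call in 100 departs from these limits); inconclusive means activation of 40% to 60%, or above that upper limit; inactive means activation under 40%.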 Some of the results follow. The source holds several records for some structures; these can differ, active in one and inactive in another.

Sequence of UniProt O75388 (O75388 whole entry, looked up, the tested form may be a part): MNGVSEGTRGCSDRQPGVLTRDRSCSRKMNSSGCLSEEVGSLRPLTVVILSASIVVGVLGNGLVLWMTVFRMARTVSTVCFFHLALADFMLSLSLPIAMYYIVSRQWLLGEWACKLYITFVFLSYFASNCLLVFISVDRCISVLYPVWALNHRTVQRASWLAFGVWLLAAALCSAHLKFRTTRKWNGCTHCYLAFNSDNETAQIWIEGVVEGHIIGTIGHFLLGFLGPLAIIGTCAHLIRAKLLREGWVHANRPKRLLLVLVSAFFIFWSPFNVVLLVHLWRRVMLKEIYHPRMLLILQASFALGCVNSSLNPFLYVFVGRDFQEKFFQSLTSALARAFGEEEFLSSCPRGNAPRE

The assay concerns the target Probable G-protein coupled receptor 32 (Homo sapiens) (UniProt O75388). The assay is described as follows: qHTS for Agonists of Human Resolvin D1 Receptor DRV1. Conditions: CHO-K1 GPR32 beta-arrestin PathHunter luminescence, 90 min; at 76.9 µM; stronger effect = higher value; zero percent set by DMSO-only wells. In outline:
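PathHunter enzyme-fragment complementation, CHO-K1 GPR32 stable line; 2,500 cells/well, overnight attach; cpd 90 min 37 °C 5% CO2; detection reagent 1 h RT; chemiluminescence. DMSO = EC0.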
Turning to `COC(=O)CC1c2cc(OC)c(OC)cc2CCN1C(=O)Nc1ccc(C)cc1Cl` (stereo unspecified), the activation is inactive: -13.8%.
`COc1ccccc1Nc1nn2c(=O)c3ccc(C(=O)NCCCOC(C)C)cc3nc2s1`: the activation was inactive: 11.7%.
With `CCn1c2ccccc2c2nnc(SCCN3CCCCC3)nc21` the figure was inactive: -11.1%; with `N#C/C(=C/c1cn(Cc2ccc(F)cc2)c2ccccc12)C(=O)Nc1cccc(Cl)c1`, inactive: -32.9%.
Turning to `CCCc1cc(=O)[nH]c(Nc2ccc(C(=O)O)cc2)n1`, the activation was inactive: -2.06%.
The figure for `O=C(CSc1nccn1-c1ccccc1)Nc1nc2ccccc2s1` is inactive: 24.9%; for `CCOc1ccc(CCNC(=O)CCCn2nc(C)c3sc4ccccc4c3c2=O)cc1OCC` it is inactive: -9.66%.
With `CCOc1ccc(CNC(=O)CCC(=O)N2CC(C)Sc3ccccc32)cc1` (stereo unspecified) the figure was inactive: -13.5%; with `Cn1ccc2cc(S(=O)(=O)N3CCCN(C(=O)Nc4ccccc4Br)CC3)ccc21`, inactive: 15.1%; with `CCC1CN(C(=O)N2CCC(C(=O)NCCN(C)C)CC2)c2ccccc2O1` (stereo unspecified), inactive: 1.94%.
With `CCc1ccc(CNC(=O)c2cccc(-n3cnc4cccnc43)c2C)cc1` the figure was inactive: -1.41%.
`CCOc1ccc(OCC)c(NC(=O)Cn2ncc3c4ccccc4n(Cc4ccccc4)c3c2=O)c1`: the activation is inactive: 10.5%.
With `Cc1ccc(NC(=O)c2cnc(SCC(=O)N3CCOCC3)n(C)c2=O)cc1` the figure was inactive: 4.77%; with `COc1ccccc1-c1nnc(C2CCN(C(=O)c3ccc(C)cc3)CC2)o1`, inactive: -5.25%; with `COc1ccc(-c2noc(-c3nnn(-c4cc(C)ccc4C)c3N)n2)cc1`, inactive: 1.32%.
`COc1ccc2nc3oc(C(=O)NCc4ccccc4OC)cc3cc2c1`: the activation was inactive: 13.3%.
With `NC(=O)CSc1ncc2c(n1)-c1ccccc1N(Cc1cccc(F)c1)S2(=O)=O` the figure was inactive: -3.76%; with `Cc1ccc(-c2nc(CS(=O)CC(=O)N3CCN(c4ccc(Cl)cc4)CC3)c(C)o2)cc1` (stereo unspecified), inactive: -5.44%.
As to `CN(C)S(=O)(=O)c1ccc2c(c1)N(CC(=O)N1CCN(c3ccc(F)cc3)CC1)CCS2`, the activation was inactive: -0.104%.
In the case of `CC1(C)CC(=O)c2c(oc3c(Cl)cc(NS(=O)(=O)c4ccc(Cl)cc4)cc23)C1`, the activation was inactive: -0.712%.
With `CCN(CC)CCNC(=O)c1ccc(Cn2c(=O)c3cccn3c3cccnc32)cc1` the figure was inactive: -25.4%.
With `CC1CCN(c2ccc(-c3nc(C(C)C)no3)cc2[N+](=O)[O-])CC1` the figure was inactive: 2.7%.
On to `Cc1nc2ccccc2c(=O)n1-c1ccc(NC(=O)C(F)(F)F)cc1`, for which the activation was inactive: 19.3%.
For the compound `Cc1cc(NC(=O)CSc2ncc(C(=O)Nc3ccc(F)cc3)c(=O)n2C)no1`, the activation is inactive: -8.48%.
With `Cc1ccc(-n2ncc(C(=O)NCCc3ccsc3)c2C2CCN(C(=O)OC(C)(C)C)CC2)cc1C` the figure was inactive: -11.2%.
As to `O=C(CC(NCc1cccnc1)C(=O)O)Nc1ccc(F)cc1` (stereo unspecified), the activation is inactive: -0.687%.
With `O=c1oc2ccc(Br)cc2cc1-c1csc(-c2ccc(Cl)cc2)n1` the figure was inactive: -0.0006%; with `CCCNC(=O)c1ccc(-n2c(-c3ccccc3)cc3c2CCC(C)C3)cc1` (stereo unspecified), inactive: -36.9%.
With `CCOc1ccccc1NC(=O)c1c(NCc2sccc2C)sc2c1CCCCC2` the figure was inactive: -13.9%; with `C=Cc1ccc(Cn2c(C(=O)O)c(CNCc3cc(Br)ccc3OC)c3ccc(C)cc32)cc1`, inactive: -1.85%; with `CCCN1C(=O)C2(c3ccccc31)c1c(oc3ccccc3c1=O)C(=O)N2CCO` (stereo unspecified), inactive: 6.48%.
On to `CCN(CC)c1nn2c(=O)c(C(=O)NCc3ccc(F)cc3)cnc2s1`, for which the activation is inactive: -7.43%.
`CCCn1c2ccccc2c2cnn(CC(=O)NCCc3ccc(OC)cc3OC)c(=O)c21`: the activation was inactive: -2.72%.
Take `CCNC(=O)Cc1ccc(NC(=O)N2CCCCc3ccccc32)cc1`: the activation was inactive: 3.33%.
With `O=C(c1ccc(OCCN2CCCCC2)cc1)c1c(-c2ccc(O)cc2)sc2cc(O)ccc12` the figure was inactive: -4.37% and inactive: -34%; with `O=C1c2ccccc2-c2n[nH]c3cccc1c23`, inactive: 20.2%; with `Cc1nc(-c2ccccc2)sc1CCNS(=O)(=O)c1ccc(Br)cc1`, inactive: 21.4%.
Take `CCn1nc(C)c(CCN(C)C(=O)Nc2cc(Cl)ccc2C)c1C`: the activation is inactive: 17.7%.
For `COc1ccc(CC(=O)NCCc2csc(-c3ccc(Cl)cc3)n2)cc1`, the activation is inactive: 40.3%.
The figure for `COc1cc2c(c(OC)c1OC)-c1ccc(OC)c(=O)cc1[C@@H](NC(C)=O)CC2` is inactive: 12% and inactive: 3.37%; for `Cc1ccc(CNC(=O)CCS(=O)(=O)c2cc(Br)cc3c2N(C(=O)C2CC2)CC3)cc1` it is inactive: -3.13%.
As for `O=C(Nc1ccc(Cl)cc1)N1CCN(c2ccc3nnc(-c4ccc(F)cc4)n3n2)CC1`, the activation was inactive: -2.64%.
With `Cc1ccc(-n2nc(CO)c(C(=O)NCc3cccs3)n2)cc1` the figure was inactive: -7.77%.
The figure for `Cc1cc(C)c(S(=O)(=O)NCC(c2cccs2)S(=O)(=O)c2ccccc2)c(C)c1` (stereo unspecified) is inactive: -0.181%.
The figure for `COc1ccccc1CCNC(=O)C(=O)NCC(c1ccco1)S(=O)(=O)c1ccc(C)cc1` (stereo unspecified) is inactive: -19.7%.
Take `CCC(=O)N1CCc2cc(S(=O)(=O)CCC(=O)NCc3ccccc3OC)ccc21`: the activation is inactive: -7.68%.
The figure for `Cc1ccc(NCc2nc3ccccc3n2CCOc2ccccc2)cc1` is inactive: 9.65%; for `CCCCn1c(CNC(=O)c2ccc(OC)cc2)nnc1SCC(=O)Nc1ccc(OC)cc1` it is inactive: 3%.
The figure for `Cc1cc(NC(=O)Nc2nc3c(s2)CCCCCC3)ccc1Br` is inactive: -1.71%.
Take `COc1ccccc1Nc1cc(C(=O)NCc2cccs2)c2ccccc2n1`: the activation was inactive: -23.1%.
Turning to `COc1ccc(C2CC(=O)c3cc(-c4nc(-c5ccc(Cl)cc5)cs4)c(=O)[nH]c3C2)cc1OC` (stereo unspecified), the activation was inactive: 11.1%.
With `CC1Cc2ccccc2N1S(=O)(=O)c1nnc(NC(=O)c2ccccc2)s1` (stereo unspecified) the figure was inactive: 47.5%; with `COC(=O)c1nnn(CC(=O)NC(=O)Nc2c(C)cccc2C)c1C(=O)OC`, inactive: 2.38%.
The figure for `CCn1cc2nc(SCC(=O)Nc3ccccc3C(F)(F)F)n(Cc3ccc(C)cc3)c(=O)c2n1` is inactive: -1.88%.
In the case of `Cc1ccccc1C(=O)n1nc(-c2cccnc2)nc1NCc1ccccc1`, the activation is inactive: -29.6%.
The figure for `CCCCN(CC)CCCNC(=O)c1nn(C)c2c1CSc1ccccc1-2` is inactive: -13.6%.
The figure for `COc1ccc(OC)c(CCNC(=O)Cn2ncc3c([nH]c4ccccc43)c2=O)c1` is inactive: -10.4%; for `NS(=O)(=O)c1ccc(NC(=O)C2Cc3ccccc3N2C(=O)c2ccccc2)cc1` (stereo unspecified) it is inactive: -19.4%; for `CCn1cc(C(=O)N2CCN(c3cccc(C)c3C)CC2)c2cc(OC)c(OC)cc2c1=O` it is active: 75.8%.
Take `COc1ccc(N2CC(NC(=O)C(c3ccccc3)c3ccccc3)CC2=O)cc1OC` (stereo unspecified): the activation is inactive: 10.8%.
With `CC(C)Oc1ccc(-c2nc3c(C#N)c[nH]n3c2NC2CCCCC2)cc1` the figure was inactive: -39.7%.
`COCCCNC(=O)CCC(=O)NNc1nc2ccccc2c2nc(C)nn12`: the activation is inactive: 26.4%.
In the case of `CCOC(=O)c1c(C)oc2ncnc(Nc3ccc(OC)c(OC)c3)c12`, the activation was inactive: -21.1%.
Regarding `COc1ccc(Cn2c(=O)c3cccnc3n(Cc3cccc(F)c3)c2=O)cc1`, the activation is inactive: -23.9%.
With `COc1ccccc1CNC(=O)c1ccc2nc(CCc3ccccc3)oc2c1` the figure was inactive: -12.1%; with `COc1ccc(-c2nc(SCC(=O)Nc3c(C)cc(C)cc3C)n[nH]2)cc1`, inactive: -5.66%.
Turning to `COc1cccc(-c2nc(S(=O)(=O)c3ccc(C)cc3)c(N3CCCCC3)o2)c1`, the activation was inactive: 1.1%.
Turning to `CN(C)c1nc2c(Br)c(Br)c(Br)c(Br)c2[nH]1`, the activation was inactive: 0.243%.
The figure for `COC(=O)c1ccc(C(=O)OC)c(NC(=O)c2ccc(-c3ccccc3)s2)c1` is inactive: -2.09%; for `Cc1cc(OCC(=O)N(Cc2ccc(N(C)C)cc2)CC2CCCO2)ccc1Cl` (stereo unspecified) it is inactive: -14.1%.
The figure for `Cc1cccc(C)c1NC(=O)c1sc(-n2nc(C)c(Cc3ccccc3)c2C)nc1C` is inactive: -6.13%; for `O=C(CSc1ncc(S(=O)(=O)c2ccc(Cl)cc2)c(=O)[nH]1)Nc1cccc(C(F)(F)F)c1` it is active: 113%.
The figure for `COc1ccccc1NC(=O)c1c(C)cc(C)nc1SCC(=O)c1ccc(Cl)cc1` is inactive: -17%; for `CC(C)Oc1ccc(C(=O)N(Cc2ccco2)Cc2cccs2)cc1` it is inactive: -25.1%.
Take `CCOC(=O)c1ccccc1NC(=O)CSc1nccn1Cc1ccco1`: the activation is inactive: 1.72%.
The figure for `COc1ccc(-c2cc3nc(C)c(CCC(=O)NC4CCCCC4)c(C)n3n2)c(OC)c1` is inactive: -16.4%; for `CC(CN1c2ccccc2Sc2ccccc21)N(C)C` (stereo unspecified) it is inactive: 3.93%; for `COc1cc(-c2nnc(SCCOc3cc(C)cc(C)c3)o2)cc(OC)c1OC` it is inactive: 8.01%.
With `Cc1cccc(Cn2cccc2CNS(=O)(=O)c2ccc(Br)cc2)c1` the figure was inactive: 37.1%; with `COc1ccc(-c2cc3ccc(O)c(CN4CCC(C)CC4)c3oc2=O)cc1OC`, inactive: -22.6%.
Turning to `COc1ccc(S(=O)(=O)Nc2cc(S(=O)(=O)c3ccccc3)c(O)c(C)c2C)cc1`, the activation was inactive: 2.58%.
The figure for `Cc1ccc(C(C)C)c(OC(C)C(=O)NCC2(N(C)C)CCCCC2)c1` (stereo unspecified) is inactive: 5.18%; for `Cc1ccccc1CN1C(=O)c2ccccc2S(=O)(=O)c2ccc(C(=O)OCC3CCCO3)cc21` (stereo unspecified) it is inactive: -8.6%; for `CC(NC(=O)CN1C(=O)c2cccnc2Oc2ccc(Cl)cc21)c1ccccc1` (stereo unspecified) it is inactive: -22.1%.
With `Cc1cc(OC(C)C(=O)Nc2sc3c(c2C(N)=O)CCCC3)ccc1Cl` (stereo unspecified) the figure was inactive: 47.8%; with `CCOc1ccccc1CNc1nc2nc(C)cc(C)n2n1`, inactive: 7.74%.
